{
  "source": "the supplement of paper PMC8728848",
  "assay_in_all_cases": "glycan array binding signal (z-score within array); higher = stronger binding",
  "details_in_all_cases": "glycan notation: IUPAC condensed, linker removed",
  "key": {"[1]": {"target": "Gal(b1-4)GlcNAc(b1-2)[Gal(b1-4)GlcNAc(b1-4)]Man(a1-3)[GlcNAc(b1-4)][Gal(b1-4)GlcNAc(b1-2)Man(a1-6)]Man(b1-4)GlcNAc(b1-4)GlcNAc", "outline": "(§1)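 The binding signal is a Z-score computed within each array and averaged over linkers. Arrays of the same protein sequence at different concentrations or buffers were also averaged together. Data originate from 3228 arrays in the Consortium for Functional Glycomics database, kept only where the protein sequence was available.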"}, "[2]": {"target": "Gal(b1-4)GlcNAc(b1-2)[Gal(b1-4)GlcNAc(b1-4)]Man(a1-3)[GlcNAc(b1-4)][Gal(b1-4)GlcNAc(b1-2)[Gal(b1-4)GlcNAc(b1-6)]Man(a1-6)]Man(b1-4)GlcNAc(b1-4)GlcNAc", "outline": "as §1"}, "[3]": {"target": "Gal(b1-4)GlcNAc(b1-2)[Gal(b1-4)GlcNAc(b1-4)]Man(a1-3)[GlcNAc(b1-4)][Gal(b1-4)GlcNAc(b1-2)[Gal(b1-4)GlcNAc(b1-6)]Man(a1-6)]Man(b1-4)GlcNAc(b1-4)[Fuc(a1-6)]GlcNAc", "outline": "as §1"}, "[4]": {"target": "Gal(b1-4)GlcNAc(b1-2)[Gal(b1-4)GlcNAc(b1-6)]Man(a1-6)[Gal(b1-4)GlcNAc(b1-2)Man(a1-3)]Man(b1-4)GlcNAc(b1-4)GlcNAc", "outline": "as §1"}, "[5]": {"target": "Gal(b1-4)GlcNAc(b1-2)[Gal(b1-4)GlcNAc(b1-6)]Man(a1-6)[Gal(b1-4)GlcNAc(b1-2)Man(a1-3)]Man(b1-4)GlcNAc(b1-4)[Fuc(a1-6)]GlcNAc", "outline": "as §1"}, "[6]": {"target": "Gal(b1-4)GlcNAc(b1-2)[Gal(b1-4)GlcNAc(b1-6)]Man(a1-6)[GlcNAc(b1-4)][Gal(b1-4)GlcNAc(b1-2)Man(a1-3)]Man(b1-4)GlcNAc(b1-4)GlcNAc", "outline": "as §1"}, "[7]": {"target": "Gal(b1-4)GlcNAc(b1-3)Gal(b1-3)GlcNAc", "outline": "as §1"}, "[8]": {"target": "Gal(b1-4)GlcNAc(b1-3)Gal(b1-4)Glc", "outline": "as §1"}, "[9]": {"target": "Gal(b1-4)GlcNAc(b1-3)Gal(b1-4)GlcNAc", "outline": "as §1"}, "[10]": {"target": "Gal(b1-4)GlcNAc(b1-3)Gal(b1-4)GlcNAc(b1-3)Gal(b1-4)GlcNAc", "outline": "as §1"}, "[11]": {"target": "Gal(b1-4)GlcNAc(b1-3)Gal(b1-4)[Fuc(a1-3)GlcNAc(b1-6)]Gal(b1-4)Glc", "outline": "as §1"}, "[12]": {"target": "Gal(b1-4)GlcNAc(b1-3)Gal(b1-4)[Fuc(a1-3)]GlcNAc(b1-3)Gal(b1-4)[Fuc(a1-3)]GlcNAc", "outline": "as §1"}, "[13]": {"target": "Gal(b1-4)GlcNAc(b1-3)GalNAc", "outline": "as §1"}, "[14]": {"target": "Gal(b1-4)GlcNAc(b1-3)[Gal(b1-4)GlcNAc(b1-6)]Gal(b1-4)GlcNAc", "outline": "as §1"}, "[15]": {"target": "Gal(b1-4)GlcNAc(b1-3)[Gal(b1-4)GlcNAc(b1-6)]GalNAc", "outline": "as §1"}, "[16]": {"target": "Gal(b1-4)GlcNAc(b1-3)[GlcNAc(b1-6)]Gal(b1-4)GlcNAc", "outline": "as §1"}, "[17]": {"target": "Gal(b1-4)GlcNAc(b1-6)Gal(b1-4)GlcNAc", "outline": "as §1"}, "[18]": {"target": "Gal(b1-4)GlcNAc(b1-6)GalNAc", "outline": "as §1"}, "[19]": {"target": "Gal(b1-4)GlcNAc(b1-6)[Gal(b1-3)]GalNAc", "outline": "as §1"}, "[20]": {"target": "Gal(b1-4)GlcNAc6P", "outline": "as §1"}, "[21]": {"target": "Gal(b1-6)Gal", "outline": "as §1"}, "[22]": {"target": "Gal3S(b1-3)GalNAc", "outline": "as §1"}, "[23]": {"target": "Gal3S(b1-3)GlcNAc", "outline": "as §1"}, "[24]": {"target": "Gal3S(b1-3)[Fuc(a1-4)]GlcNAc", "outline": "as §1"}, "[25]": {"target": "Gal3S(b1-4)Glc", "outline": "as §1"}, "[26]": {"target": "Gal3S(b1-4)Glc6S", "outline": "as §1"}, "[27]": {"target": "Gal3S(b1-4)GlcNAc", "outline": "as §1"}, "[28]": {"target": "Gal3S(b1-4)GlcNAc6S", "outline": "as §1"}, "[29]": {"target": "Gal3S(b1-4)[Fuc(a1-3)]Glc", "outline": "as §1"}, "[30]": {"target": "Gal3S(b1-4)[Fuc(a1-3)]Glc6S", "outline": "as §1"}, "[31]": {"target": "Gal3S4S(b1-4)GlcNAc", "outline": "as §1"}, "[32]": {"target": "Gal3S6S(b1-4)GlcNAc", "outline": "as §1"}, "[33]": {"target": "Gal3S6S(b1-4)GlcNAc6S", "outline": "as §1"}, "[34]": {"target": "Gal4S(b1-4)GlcNAc", "outline": "as §1"}, "[35]": {"target": "Gal4S6S(b1-4)GlcNAc", "outline": "as §1"}, "[36]": {"target": "Gal6P(b1-4)GlcNAc", "outline": "as §1"}, "[37]": {"target": "Gal6S(b1-3)GlcNAc", "outline": "as §1"}, "[38]": {"target": "Gal6S(b1-3)GlcNAc6S", "outline": "as §1"}, "[39]": {"target": "Gal6S(b1-4)Glc", "outline": "as §1"}, "[40]": {"target": "Gal6S(b1-4)Glc6S", "outline": "as §1"}, "[41]": {"target": "Gal6S(b1-4)GlcNAc", "outline": "as §1"}, "[42]": {"target": "Gal6S(b1-4)GlcNAc6S", "outline": "as §1"}, "[43]": {"target": "GalNAc(a1-3)Gal", "outline": "as §1"}, "[44]": {"target": "GalNAc(a1-3)GalNAc", "outline": "as §1"}, "[45]": {"target": "GalNAc(a1-3)GalNAc(b1-3)Gal(a1-4)Gal(b1-4)Glc", "outline": "as §1"}},
  "note": "Some of the results follow.",
  "data": [
    {"binder": "OrfX (Escherichia coli), Q9X4B6_ECOLX (protein) MIKIARIAVTLGLLSSLGAQAYAAGLVVNDNDLRNDLAWLSDRGVIHLSLSTWPLSQEEIARALKKAKPSYSSEQVVLARINQRLSALKADFRVTGYTSTDQPGTPQGFGQTQPADNSLGLAFNNSGEWWDVHLQGNVEGGERISNGSRFNANGAYGAVKFWNQWLSFGQVPQWWGPGYEGSLIRGDAMRPMTGFLMQRAEQAAPETWWLRWVGPWQYQISASQMNQYTAVPHAKIIGGRFTFTPFQSLELGASRIMQWGGEGRPQSFSSFWDGFTGHDNTGTDNEPGNQLAGFDFKFKLEPTLGWPVSFYGQMVGEDESGYLPSANMFLGGVEGHHGWGKDTVNWYVEAHDTRTNMSRTNYSYTHHIYKDGYYQQGYPLGDAMGGDGQLIAGKVELITEDNQRWSTRLVYAKVNPENQSINKAFPHADTLKGLQLGWSGDVYQSVRLNTSLWYTNANNSDSDDVGASAGIEIPFSL", "values": [
      {"measurement": "glycan array binding signal (z-score)", "setting": "[1]", "result": -0.323},
      {"measurement": "glycan array binding signal (z-score)", "setting": "[2]", "result": -0.369},
      {"measurement": "glycan array binding signal (z-score)", "setting": "[3]", "result": -0.388},
      {"measurement": "glycan array binding signal (z-score)", "setting": "[4]", "result": -0.191},
      {"measurement": "glycan array binding signal (z-score)", "setting": "[5]", "result": -0.387},
      {"measurement": "glycan array binding signal (z-score)", "setting": "[6]", "result": -0.353},
      {"measurement": "glycan array binding signal (z-score)", "setting": "[7]", "result": -0.066},
      {"measurement": "glycan array binding signal (z-score)", "setting": "[8]", "result": -0.162},
      {"measurement": "glycan array binding signal (z-score)", "setting": "[9]", "result": -0.309},
      {"measurement": "glycan array binding signal (z-score)", "setting": "[10]", "result": -0.265},
      {"measurement": "glycan array binding signal (z-score)", "setting": "[11]", "result": -0.188},
      {"measurement": "glycan array binding signal (z-score)", "setting": "[12]", "result": -0.216},
      {"measurement": "glycan array binding signal (z-score)", "setting": "[13]", "result": -0.124},
      {"measurement": "glycan array binding signal (z-score)", "setting": "[14]", "result": -0.378},
      {"measurement": "glycan array binding signal (z-score)", "setting": "[15]", "result": -0.152},
      {"measurement": "glycan array binding signal (z-score)", "setting": "[16]", "result": -0.224},
      {"measurement": "glycan array binding signal (z-score)", "setting": "[17]", "result": 0.129},
      {"measurement": "glycan array binding signal (z-score)", "setting": "[18]", "result": 0.012},
      {"measurement": "glycan array binding signal (z-score)", "setting": "[19]", "result": -0.078},
      {"measurement": "glycan array binding signal (z-score)", "setting": "[20]", "result": 0.611},
      {"measurement": "glycan array binding signal (z-score)", "setting": "[21]", "result": 0.048},
      {"measurement": "glycan array binding signal (z-score)", "setting": "[22]", "result": -0.272},
      {"measurement": "glycan array binding signal (z-score)", "setting": "[23]", "result": -0.202},
      {"measurement": "glycan array binding signal (z-score)", "setting": "[24]", "result": -0.006},
      {"measurement": "glycan array binding signal (z-score)", "setting": "[25]", "result": 0.076},
      {"measurement": "glycan array binding signal (z-score)", "setting": "[26]", "result": -0.206},
      {"measurement": "glycan array binding signal (z-score)", "setting": "[27]", "result": -0.17},
      {"measurement": "glycan array binding signal (z-score)", "setting": "[28]", "result": 0.921},
      {"measurement": "glycan array binding signal (z-score)", "setting": "[29]", "result": -0.08},
      {"measurement": "glycan array binding signal (z-score)", "setting": "[30]", "result": 2.79},
      {"measurement": "glycan array binding signal (z-score)", "setting": "[31]", "result": 0.796},
      {"measurement": "glycan array binding signal (z-score)", "setting": "[32]", "result": 0.287},
      {"measurement": "glycan array binding signal (z-score)", "setting": "[33]", "result": -0.098},
      {"measurement": "glycan array binding signal (z-score)", "setting": "[34]", "result": -0.2},
      {"measurement": "glycan array binding signal (z-score)", "setting": "[35]", "result": 0.039},
      {"measurement": "glycan array binding signal (z-score)", "setting": "[36]", "result": 1.64},
      {"measurement": "glycan array binding signal (z-score)", "setting": "[37]", "result": -0.096},
      {"measurement": "glycan array binding signal (z-score)", "setting": "[38]", "result": 1.84},
      {"measurement": "glycan array binding signal (z-score)", "setting": "[39]", "result": 0.055},
      {"measurement": "glycan array binding signal (z-score)", "setting": "[40]", "result": 0.49},
      {"measurement": "glycan array binding signal (z-score)", "setting": "[41]", "result": -0.003},
      {"measurement": "glycan array binding signal (z-score)", "setting": "[42]", "result": 2.74},
      {"measurement": "glycan array binding signal (z-score)", "setting": "[43]", "result": 0.04},
      {"measurement": "glycan array binding signal (z-score)", "setting": "[44]", "result": -0.159},
      {"measurement": "glycan array binding signal (z-score)", "setting": "[45]", "result": -0.251}
    ]}
  ]
}
